# Measured values: PubChem BioAssay AID686978 (National Center for Advancing Translational Sciences (NCATS), 2013)
# Among all 420,000 compounds or so, about 64,000 (15%) were called active. The inconclusive results got no clear call from the source; some entries with a clear call stand among them for comparison. The call rests on the fitted dose curve; in most records, active means well fitted inhibition curve with a large enough effect; inconclusive means small, poorly fitted or top-dose-only effect; inactive means flat fitted curve, though single readings scatter. Potencies of inconclusive entries are left out as doubtful fits.
# Assay: qHTS for Inhibitors of human tyrosyl-DNA phosphodiesterase 1 (TDP1): qHTS in cells in absence of CPT; further: nearly all actives have a fitted effect of over 55% in size
# Settings: DT40 Tdp1-/- hTDP1 cells, no CPT, ATP luminescence, 48 h; activity change, negative = growth inhibition: at 46.2 µM (top of the series) unless noted
# In short: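 DT40 Tdp1-/-;hTDP1 cells, no CPT (DMSO vehicle only), 400 cells/well; compounds pin-transferred; ≥48 hr, 37 °C; CellTiter-Glo 30 min RT dark, luminescence read.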
# On the % scale 0 is the no-effect control and ±100 the full control effect; potency means the concentration at half of the fitted maximal effect; tags describe the fitted curve by direction and shape.
SMILES,Potency,"activity change, negative = growth inhibition"
COC(=O)c1c(NC(NC(=O)C(C)(C)C)C(Cl)(Cl)Cl)sc2c1CCC2 (stereo unspecified),"inconclusive [inhibitor, single point]",–
COC(=O)c1cc2ccsc2n1Cc1nc(-c2ccc(OC)cc2)oc1C,"inconclusive [inhibitor, single point]",–
COc1cccc2sc(NN)nc12,"inconclusive [inhibitor, single point]",–
COC(=O)c1ccccc1NC(=O)COC(=O)c1ccccc1N=Nc1ccc(N(C)C)cc1,active: 16.4 µM,–
O=C(c1cccc(F)c1)N1CCN(c2ccc([N+](=O)[O-])c3cccnc23)CC1,"inconclusive [inhibitor, single point]",–
COc1ccccc1NC(=O)CSc1nc2ccccc2cc1Cc1ccccc1,"inconclusive [inhibitor, single point]",–
Cc1ccc(C)c(N=Cc2ccc(-c3ccc([N+](=O)[O-])cc3)o2)c1,"inconclusive [inhibitor, single point]",–
O=C(NCc1cc(C(F)(F)F)ccc1F)C1CCC(=O)N(C2CC2)C1 (stereo unspecified),–,inactive: -1.52%
CNC(=O)c1sc(SC)cc1-c1ccc(Cl)cc1,"inconclusive [inhibitor, full curve, poor fit]",–
CC1(C(=O)NC2CCCCC2)Cc2ccccc2C(=O)N1Cc1ccc(F)cc1 (stereo unspecified),"inconclusive [inhibitor, partial curve]",–
CN(C)C(=O)c1cc(C(=O)c2ccccc2Cl)c[nH]1,"inconclusive [inhibitor, single point]",–
CCOc1ccc2nc(N(CCN(CC)CC)C(=O)/C=C/c3cccs3)sc2c1,"inconclusive [inhibitor, single point]",–
CCOc1ccc(-n2ccnc2SCC(=O)Nc2ccc3c(c2)OCO3)cc1,–,inactive: -20.8%
CCN(CC)S(=O)(=O)c1ccc(NC(=O)C2c3ccccc3Oc3ccccc32)cc1,active: 16.4 µM,–
COc1ccccc1CNC(=O)COC(=O)c1c(C)nn(-c2ccccc2)c1Cl,"inconclusive [inhibitor, single point]",–
O=C(NC1CCCCC1)c1cc2nc(-c3ccco3)cc(C(F)(F)F)n2n1,active: 18.4 µM,–
C[C@H]1C=C2C=C[C@H](C)[C@H](CC[C@@H]3C[C@@H](O)CC(=O)O3)[C@H]2[C@@H](OC(=O)[C@@H](C)CCO)C1,active: 26.6 µM,–
NC(=O)CCN1CCN(C(=O)c2ccc3nc(Cc4cccc(Cl)c4)oc3c2)CC1,–,inactive: -8.19%
COc1ccccc1-c1sc2ccccc2c1C#Cc1ccc(N(C)C)cc1,"inconclusive [inhibitor, single point]",–
CCc1nc2c(OCc3cccc(Cl)c3)cccn2c1N(C)C(=O)c1ccco1,"inconclusive [inhibitor, single point]",–
CCCCCNC(=O)C(c1ccnc2ccccc12)n1c(=O)c(-c2cc3ccccc3[nH]2)nc2ccccc21 (stereo unspecified),"inconclusive [inhibitor, single point]",–
COC(=O)c1cccc(NC(=O)Nc2ccccc2OC)c1,"inconclusive [inhibitor, single point]",–
Cc1cc(N2C(=O)C(O)=C(C(=O)c3ccc(C)o3)C2c2ccc([N+](=O)[O-])cc2)no1 (stereo unspecified),"inconclusive [inhibitor, single point]",–
CCC(C(=O)OCC(=O)Nc1ccccc1-c1ccccc1)c1ccccc1 (stereo unspecified),"inconclusive [inhibitor, single point]",–

SMILES,Potency,"activity change, negative = growth inhibition"
O=C(Nc1ccccc1)c1ccc2ccccc2n1,–,inactive: -23.4%
Cc1ccc(-n2c(C)cc(/C=N/NC(=O)CN(c3ccc(C)cc3C)S(C)(=O)=O)c2C)cc1,active: 20.6 µM,–
O=C(NCCS(=O)(=O)N1CCN(c2ccccc2F)CC1)C1CC(=O)N(c2ccccc2)C1 (stereo unspecified),inactive,–
COc1ccc(-n2c(N)c(C(=O)NCc3ccco3)c3nc4ccccc4nc32)cc1,"inconclusive [inhibitor, partial curve]",–
CCOc1ccc(CNC(=O)c2cnc3sc(N(CC)CC)nn3c2=O)cc1,"inconclusive [inhibitor, single point]",–
O=C(Cn1cc(S(=O)(=O)Cc2ccccc2F)c2ccccc21)N1CCOCC1,–,inactive: -13.8%
CCOC(=O)C1(CCOc2ccccc2)CCN(Cc2cc(OC)ccc2OC)CC1,active: 14.6 µM,–
CCOC(=O)CCCN1C(=O)CCn2nc(-c3cn(C)c4ccccc34)cc21,"inconclusive [inhibitor, partial curve]",–
Cc1cc(N2CCCCC2)nc(N2CCCCC2)n1,"inconclusive [inhibitor, single point]",–
NC(=O)COc1ccc(NC(=O)OCc2ccccc2)cc1,–,inactive: 9.83%
CC1(c2nnc(-c3cccc(Cl)c3)o2)CC(c2ccc(Cl)cc2)=NO1 (stereo unspecified),–,inactive: -28.9%
NS(=O)(=O)c1ccc(NC(=O)c2ccc(COc3ccccc3)o2)cc1,"inconclusive [inhibitor, single point]",–
COc1ccc(C(CC(=O)Nc2ncccc2C)N2Cc3ccccc3C2=O)cc1 (stereo unspecified),–,inactive: -18.8%
O=C(Nc1ccc(C(=O)OCc2cc(=O)n3nc(C4CC4)sc3n2)cc1)c1cccc(Cl)c1,–,inactive: -3.8%
COc1ccc(C(=O)NCC2Cc3cccc(-c4ccc(S(C)(=O)=O)cc4)c3O2)c(OC)n1 (stereo unspecified),–,inactive: -8.96%
CCC(C)(C)NC(=O)CN(C(=O)c1ccc(N2CCCC2)nc1)c1ccc(F)cc1,"inconclusive [inhibitor, single point]",–
CN1C(c2ccc(F)cc2)=CS/C1=C(/C#N)c1nnc2n1-c1ccccc1SC2,"inconclusive [inhibitor, single point]",–
COc1ccc(C(C)(NC(C)=O)c2nc(-c3cc(F)cc(F)c3)cs2)cc1 (stereo unspecified),active: 20.6 µM,–
COc1ccc(C2(C)NC(=O)N(Cc3cc(Cl)cc4c3OCOC4)C2=O)cc1OC (stereo unspecified),"inconclusive [inhibitor, partial curve]",–
O=C(NNC(=O)c1ccc(Cl)s1)c1csc(N2CCOCC2)n1,–,inactive: 3.65%
O=C(COC(=O)c1ccc2ncsc2c1)Nc1cc([N+](=O)[O-])ccc1Cl,–,inactive: -23.8%
CCCCN(Cc1ccccc1)S(=O)(=O)c1cc(Br)cc2c1N(C(C)=O)CC2,"inconclusive [inhibitor, single point]",–
C=CCNc1nc(NCc2ccco2)nc(OCC)n1,"inconclusive [inhibitor, single point]",–
CCOC(=O)C1CCCN(C(=O)c2cc3nc(-c4cccc(OC)c4)cc(C(F)(F)F)n3n2)C1 (stereo unspecified),"inconclusive [inhibitor, single point]",–

SMILES,Potency,"activity change, negative = growth inhibition"
CCN(CC(=O)NCc1ccc(Cl)cc1)CC(=O)Nc1ccc(C(N)=O)cc1,–,inactive: -8.14%
COc1cccc(C#CC2=CC(=O)C[C@H](c3ccc(F)cc3)C2)c1,active: 8.2 µM,–
CCCCNC(=O)c1nc(-c2ccncc2)oc1-c1ccccc1,"inconclusive [inhibitor, single point]",–
O=Cc1c(NCCc2ccc(F)cc2)c2ccccc2[nH]c1=O,"inconclusive [inhibitor, partial curve]",–
COCCc1ccc(OC2(C)CCN(Cc3cccn3-c3nccs3)C2)cc1 (stereo unspecified),"inconclusive [inhibitor, single point]",–
COc1ccc(OC)c(C=NN=Cc2cc(OC)ccc2OC)c1,"inconclusive [inhibitor, single point]",–
O=C1CC(c2ccc(Cl)cc2)c2cc3c(cc2N1)OCCO3 (stereo unspecified),"inconclusive [inhibitor, single point]",–
O=C1CN(C(=O)CSc2nc3ccccc3n2CCc2ccccc2)c2ccccc2N1,active: 23.1 µM,–
COc1ccc(OCC(O)Cn2cnc(-c3ccc(Br)cc3)c2)cc1 (stereo unspecified),"inconclusive [inhibitor, single point]",–
Cc1cccc(Sc2ccc([N+](=O)[O-])cc2[N+](=O)[O-])n1,active: 3.26 µM,–
Cc1cc(Nc2ccc(Br)cc2)nc2ccccc12,"inconclusive [inhibitor, single point]",–
COC(=O)c1ccc(-c2sc3nc(N4CCOCC4)c4c(c3c2N)CCCC4)o1,active: 25.9 µM,–
CCOc1ccc(CNC(=O)c2cccn2-c2nnc(N3CCCCC3)s2)cc1OC,active: 16.4 µM,–
Cc1ccc(C(O)c2ncc(-c3ccc(F)cc3)[nH]2)cc1F (stereo unspecified),"inconclusive [inhibitor, single point]",–
O=C1NC(=O)[C@@]2(CCOc3ccc(F)cc32)N1,–,inactive: -3.88%
CCCCCn1c(=O)[nH]c2cc(C(=O)N3CCN(c4cccc(OC)c4)CC3)ccc2c1=O,active: 14.6 µM,–
O=C1CCN(Cc2ccccc2)CCN1[C@H](CSc1ccccc1)c1ccccc1,"inconclusive [inhibitor, partial curve]",–
COC(=O)c1ccc(N2CC3CNC(=O)C2(C(=O)OC)N3C)cc1 (stereo unspecified),inactive,–
Cc1csc(NC(=O)c2ccc3nc[nH]c3c2)n1,active: 23.1 µM,–
O=C(Nc1cccc(-n2cnnn2)c1)c1ccc(Cl)cc1Cl,"inconclusive [inhibitor, partial curve]",–
CCOC(=O)c1ccc(NC(=O)C2(c3ccc(OC)cc3)CCOCC2)cc1,"inconclusive [inhibitor, single point]",–
O=C(CSc1nc(-c2ccccc2)cc(C(F)(F)F)n1)NCc1ccco1,"inconclusive [inhibitor, single point]",–
Cc1ccc2c(cnn2C(=O)CCC(=O)N2CCCCC2)c1,–,inactive: -14.1%
